{"source": "paper PMC4336329", "about": "(PLoS ONE, 2015)", "note": "Out of some 310,000 compounds screened, about 14,000 (4.5%) showed an effect of 50% or more. The effect is printed as a negative number. This is one part of the list.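 Also: peak tail current of the secondary pulse compared with the same well before compound.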", "data": [{"biological_target": "human ether-à-go-go-related gene (hERG) potassium channel (human, UniProt Q12809)", "sequence (Q12809 whole entry, looked up)": "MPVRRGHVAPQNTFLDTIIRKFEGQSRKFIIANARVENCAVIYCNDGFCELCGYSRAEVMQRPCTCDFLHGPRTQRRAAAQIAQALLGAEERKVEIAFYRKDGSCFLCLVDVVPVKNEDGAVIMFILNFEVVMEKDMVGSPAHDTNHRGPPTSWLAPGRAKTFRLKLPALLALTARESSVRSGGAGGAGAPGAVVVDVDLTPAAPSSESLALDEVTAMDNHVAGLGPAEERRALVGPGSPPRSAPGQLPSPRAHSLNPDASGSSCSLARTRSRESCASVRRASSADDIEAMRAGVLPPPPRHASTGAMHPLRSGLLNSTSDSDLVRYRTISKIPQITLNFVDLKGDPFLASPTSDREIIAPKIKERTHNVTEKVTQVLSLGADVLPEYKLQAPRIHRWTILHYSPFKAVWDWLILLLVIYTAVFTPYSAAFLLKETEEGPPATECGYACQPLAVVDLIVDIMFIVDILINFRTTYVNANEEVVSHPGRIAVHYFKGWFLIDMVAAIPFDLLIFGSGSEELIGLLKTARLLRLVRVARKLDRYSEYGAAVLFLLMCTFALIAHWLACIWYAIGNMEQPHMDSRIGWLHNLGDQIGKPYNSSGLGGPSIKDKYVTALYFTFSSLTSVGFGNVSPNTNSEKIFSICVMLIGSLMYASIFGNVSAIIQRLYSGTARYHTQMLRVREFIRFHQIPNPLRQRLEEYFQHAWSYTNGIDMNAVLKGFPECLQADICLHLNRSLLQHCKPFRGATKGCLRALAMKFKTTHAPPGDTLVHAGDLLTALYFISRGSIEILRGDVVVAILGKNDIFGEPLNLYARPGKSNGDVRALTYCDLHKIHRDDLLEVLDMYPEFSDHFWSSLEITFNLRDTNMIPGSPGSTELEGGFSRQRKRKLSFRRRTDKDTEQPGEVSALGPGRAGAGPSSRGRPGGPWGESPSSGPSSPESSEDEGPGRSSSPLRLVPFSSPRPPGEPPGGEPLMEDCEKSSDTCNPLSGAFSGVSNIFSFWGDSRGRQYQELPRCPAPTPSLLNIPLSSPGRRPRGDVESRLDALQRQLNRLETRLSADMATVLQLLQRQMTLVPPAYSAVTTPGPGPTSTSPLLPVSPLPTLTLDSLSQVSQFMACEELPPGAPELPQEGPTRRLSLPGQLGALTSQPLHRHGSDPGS", "experiment": "primary screen, population patch clamp on CHO cells stably expressing hERG", "units": {"hERG current change (%, negative = inhibition) at 10uM": "%"}, "values": [{"compound": "CCOC(=O)c1sc(NC(=O)CSc2nnc(Cc3ccccc3)o2)c(C#N)c1C", "hERG current change (%, negative = inhibition) at 10uM": 18}, {"compound": "CCCC(=O)Oc1ccc(-c2nccc(C(OC)OC)n2)cc1", "hERG current change (%, negative = inhibition) at 10uM": 25.2}, {"compound": "O=C(Nc1nc2ccccc2s1)C1CCN(S(=O)(=O)c2cc([N+](=O)[O-])ccc2Cl)CC1", "hERG current change (%, negative = inhibition) at 10uM": 10.4}, {"compound": "Clc1ccc(-c2nnc3n2CCCS3)cc1", "hERG current change (%, negative = inhibition) at 10uM": 6.34}, {"compound": "Cn1c(=O)[nH]c(=O)c2c1nc(CN1CCN(c3cccc(Cl)c3)CC1)n2CCN1CCOCC1", "hERG current change (%, negative = inhibition) at 10uM": -35.9}, {"compound": "O=C(Cc1csc(NC(=O)Nc2ccc(Cl)cc2)n1)NCc1cccnc1", "hERG current change (%, negative = inhibition) at 10uM": -50.8}, {"compound": "CC(=O)Nc1ccc(S(=O)(=O)Nc2nc3nc(-c4ccccc4)cc(-c4ccccc4)n3n2)cc1", "hERG current change (%, negative = inhibition) at 10uM": 18.7}, {"compound": "CC1=C(C(=O)OCC2CCCO2)C(c2coc3ccc(C)cc3c2=O)C2=C(CCCC2=O)N1", "note": "(stereo not drawn)", "hERG current change (%, negative = inhibition) at 10uM": -7.31}, {"compound": "CS(=O)(=O)N(CC(=O)Nc1ccccc1-c1ccccc1)c1ccc(F)cc1", "hERG current change (%, negative = inhibition) at 10uM": -12.3}, {"compound": "Cc1c(NC(=O)c2ccc(C(=O)Nc3c(C)n(C)n(-c4ccccc4)c3=O)cc2)c(=O)n(-c2ccccc2)n1C", "hERG current change (%, negative = inhibition) at 10uM": 20.5}, {"compound": "Cc1ccc(OC(C)C(=O)Nc2ccc(C)c(S(=O)(=O)Nc3ccc(C)cc3C)c2)cc1", "note": "(stereo not drawn)", "hERG current change (%, negative = inhibition) at 10uM": 11.8}, {"compound": "Cc1ccc(C(=O)OCN2C(=O)c3ccccc3C2=O)o1", "hERG current change (%, negative = inhibition) at 10uM": 11.6}, {"compound": "CC(C)C(=O)Nc1ccc2c(c1)nc(CCN1CCN(c3ccccn3)CC1)n2C", "hERG current change (%, negative = inhibition) at 10uM": -18.2}, {"compound": "Cl.c1ccc(CCn2nnnc2CN2CCN(C3CCCC3)CC2)cc1", "hERG current change (%, negative = inhibition) at 10uM": -3.4}, {"compound": "COc1ccc(CCNCc2ccncc2)cc1OC", "hERG current change (%, negative = inhibition) at 10uM": -6.17}, {"compound": "COC(=O)c1ccc(OCC(O)CN2CCC(C)CC2)cc1", "note": "(stereo not drawn)", "hERG current change (%, negative = inhibition) at 10uM": -15.3}, {"compound": "Cc1ccccc1CC(=O)N1CCCC(CNC(=O)c2ccc(F)cc2)C1", "note": "(stereo not drawn)", "hERG current change (%, negative = inhibition) at 10uM": -2}, {"compound": "Cc1cc(Br)cc2c(C(=O)NCC3CCCO3)cc(-c3ccccc3)nc12", "note": "(stereo not drawn)", "hERG current change (%, negative = inhibition) at 10uM": 6.39}, {"compound": "Cn1nccc1C(=O)N1CCCC(Nc2ccc(F)cc2)C1", "note": "(stereo not drawn)", "hERG current change (%, negative = inhibition) at 10uM": 18.4}, {"compound": "OCCC1CN(Cc2nc3c(s2)CCCC3)CCN1Cc1ccccc1", "note": "(stereo not drawn)", "hERG current change (%, negative = inhibition) at 10uM": -22.5}, {"compound": "COc1ccc(-c2nc(CS(=O)CC(=O)NCCCN3CC(C)CC(C)C3)c(C)o2)cc1OC", "note": "(stereo not drawn)", "hERG current change (%, negative = inhibition) at 10uM": 27.6}, {"compound": "O=S(=O)(c1ccc(F)cc1)N1CCCC(c2nc(-c3ccc(F)cc3)no2)C1", "note": "(stereo not drawn)", "hERG current change (%, negative = inhibition) at 10uM": -13.9}, {"compound": "CSc1nc2ccccc2c(=O)n1-c1cccnc1", "hERG current change (%, negative = inhibition) at 10uM": 4.84}, {"compound": "CC(C)(C)OC(=O)N[C@@H](Cc1ccccc1)C(=O)N[C@@H](CO)[C@H](O)[C@@H]1C[C@@H]1C(=O)NC1CC1", "hERG current change (%, negative = inhibition) at 10uM": 7.28}, {"compound": "CCOC(=O)c1sc(NC(=O)Cc2ccc(F)cc2)nc1C", "hERG current change (%, negative = inhibition) at 10uM": -9.81}, {"compound": "Cl.c1ccc(CN2CCN(CCN3CCn4c3nc3ccccc34)CC2)cc1", "hERG current change (%, negative = inhibition) at 10uM": -75.8}, {"compound": "CCCc1ccc(Oc2c(-c3ccc(O)c(C)c3O)n[nH]c2C)cc1", "hERG current change (%, negative = inhibition) at 10uM": -13.2}, {"compound": "CC(=O)c1cccc(NC(=O)Cn2nc(-c3ccc(Cl)cc3)ccc2=O)c1", "hERG current change (%, negative = inhibition) at 10uM": -17.8}, {"compound": "COc1cccc(-c2cc(C(=O)Nc3cnn(Cc4ccc(F)cc4)c3)no2)c1", "hERG current change (%, negative = inhibition) at 10uM": 21.4}, {"compound": "COCc1nnc(NC(=O)c2ccccc2Oc2ccccc2)s1", "hERG current change (%, negative = inhibition) at 10uM": 9.02}, {"compound": "Cc1ccc(C(=O)N2CCC(C(=O)c3c(C)cc(C)cc3C)CC2)cc1", "hERG current change (%, negative = inhibition) at 10uM": -38.5}, {"compound": "O=C(NCc1ccccc1)NC1(C(=O)N2CCN(c3ncccn3)CC2)CCCCC1", "hERG current change (%, negative = inhibition) at 10uM": 1.22}, {"compound": "O=C(NCCCCNC(=O)c1cccs1)c1cccs1", "hERG current change (%, negative = inhibition) at 10uM": 10.2}, {"compound": "CN(C)S(=O)(=O)N1CCN(c2ccccc2Cl)CC1", "hERG current change (%, negative = inhibition) at 10uM": -7.02}, {"compound": "O=c1c(-c2ccco2)[n+]([O-])c2ccccc2n1OCc1ccccc1[N+](=O)[O-]", "hERG current change (%, negative = inhibition) at 10uM": -16.2}, {"compound": "Cc1nc2c(=O)[nH]c3ccccc3c2o1", "hERG current change (%, negative = inhibition) at 10uM": 5.79}, {"compound": "Cc1ccc(N2CC(NC(=O)C(=O)c3c[nH]c4ccccc34)CC2=O)cc1C", "note": "(stereo not drawn)", "hERG current change (%, negative = inhibition) at 10uM": 1.89}, {"compound": "Cc1cc(F)ccc1S(=O)(=O)N1CCCOC1CNC(=O)C(=O)NCCN1CCOCC1", "note": "(stereo not drawn)", "hERG current change (%, negative = inhibition) at 10uM": 7.34}, {"compound": "CC(=O)Oc1ccc(C(=O)[C@H]2[C@H]3C(=O)N(c4ccc5ccccc5c4)C(=O)[C@H]3[C@@H]3C=CC=NN32)cc1", "hERG current change (%, negative = inhibition) at 10uM": -12.7}, {"compound": "Cc1ccc(CN2CC(C(=O)Nc3ccc(F)c([N+](=O)[O-])c3)CC2=O)cc1", "note": "(stereo not drawn)", "hERG current change (%, negative = inhibition) at 10uM": -16}, {"compound": "CCOC(=O)C1=C(C)OC(N)=C(C#N)C1c1cc2c(cc1[N+](=O)[O-])OCO2", "note": "(stereo not drawn)", "hERG current change (%, negative = inhibition) at 10uM": -0.846}, {"compound": "COc1cccc(C2=NOC(C(=O)N3CCN(c4ccccc4)CC3)C2)c1OC", "note": "(stereo not drawn)", "hERG current change (%, negative = inhibition) at 10uM": -0.252}, {"compound": "Cc1ccc(/C=N/Nc2cc(C)nc(N3CCOCC3)n2)cc1", "hERG current change (%, negative = inhibition) at 10uM": 17.5}, {"compound": "c1ccc(CSc2ccc(-c3ccco3)nn2)cc1", "hERG current change (%, negative = inhibition) at 10uM": 5.6}, {"compound": "COc1cc(NC(=O)CCn2c(=O)oc3ccccc32)cc(OC)c1OC", "hERG current change (%, negative = inhibition) at 10uM": 24}, {"compound": "Cc1ccc(C2CC(=O)C(C=NCCN3CCN(C(=S)Nc4ccccc4)CC3)=C(O)C2)cc1", "note": "(stereo not drawn)", "hERG current change (%, negative = inhibition) at 10uM": -26.4}, {"compound": "CCn1c(=O)cc(OCC(=O)N2CCN(C(=O)c3ccco3)CC2)c2ccccc21", "hERG current change (%, negative = inhibition) at 10uM": -29.7}, {"compound": "Cc1ccc(CSc2nnc(CCCCCNC(=O)OC(C)(C)C)o2)cc1", "hERG current change (%, negative = inhibition) at 10uM": -18.1}, {"compound": "O=C(CCc1c[nH]c2ccccc12)NCCc1ccc(Cl)cc1", "hERG current change (%, negative = inhibition) at 10uM": -9.21}, {"compound": "C/C(=N\\NC(=O)NC1CCCCC1)c1ccco1", "hERG current change (%, negative = inhibition) at 10uM": -17}, {"compound": "Cc1ccc(NC(=O)Cc2nc(-c3c[nH]c(C(=O)N4CCCC4)c3)cs2)c(C)c1", "hERG current change (%, negative = inhibition) at 10uM": -26.7}, {"compound": "C=CCn1c(C)csc1=Nc1ccc(C(C)=O)cc1", "hERG current change (%, negative = inhibition) at 10uM": -18.4}, {"compound": "CC(C)OC(=O)CN1CCN(c2ccc(Cl)cc2)CC1", "hERG current change (%, negative = inhibition) at 10uM": 1.73}, {"compound": "C=CCNc1nc(N)c([N+](=O)[O-])c(NCc2ccccc2)n1", "hERG current change (%, negative = inhibition) at 10uM": 9.95}]}]}
